# Reference: article PMC4336329 (PLoS ONE, 2015)
# In all, about 310,000 compounds went through this assay and about 2,200 (0.71%) showed an effect of 50% or more. The effect is printed as a negative number. The list shows a part of the results.
# Biological target: human ether-à-go-go-related gene (hERG) potassium channel (human, UniProt Q12809)
# Test: primary screen, population patch clamp on CHO cells stably expressing hERG
# human ether-à-go-go-related gene (hERG) potassium channel, sequence (Q12809 whole entry, looked up): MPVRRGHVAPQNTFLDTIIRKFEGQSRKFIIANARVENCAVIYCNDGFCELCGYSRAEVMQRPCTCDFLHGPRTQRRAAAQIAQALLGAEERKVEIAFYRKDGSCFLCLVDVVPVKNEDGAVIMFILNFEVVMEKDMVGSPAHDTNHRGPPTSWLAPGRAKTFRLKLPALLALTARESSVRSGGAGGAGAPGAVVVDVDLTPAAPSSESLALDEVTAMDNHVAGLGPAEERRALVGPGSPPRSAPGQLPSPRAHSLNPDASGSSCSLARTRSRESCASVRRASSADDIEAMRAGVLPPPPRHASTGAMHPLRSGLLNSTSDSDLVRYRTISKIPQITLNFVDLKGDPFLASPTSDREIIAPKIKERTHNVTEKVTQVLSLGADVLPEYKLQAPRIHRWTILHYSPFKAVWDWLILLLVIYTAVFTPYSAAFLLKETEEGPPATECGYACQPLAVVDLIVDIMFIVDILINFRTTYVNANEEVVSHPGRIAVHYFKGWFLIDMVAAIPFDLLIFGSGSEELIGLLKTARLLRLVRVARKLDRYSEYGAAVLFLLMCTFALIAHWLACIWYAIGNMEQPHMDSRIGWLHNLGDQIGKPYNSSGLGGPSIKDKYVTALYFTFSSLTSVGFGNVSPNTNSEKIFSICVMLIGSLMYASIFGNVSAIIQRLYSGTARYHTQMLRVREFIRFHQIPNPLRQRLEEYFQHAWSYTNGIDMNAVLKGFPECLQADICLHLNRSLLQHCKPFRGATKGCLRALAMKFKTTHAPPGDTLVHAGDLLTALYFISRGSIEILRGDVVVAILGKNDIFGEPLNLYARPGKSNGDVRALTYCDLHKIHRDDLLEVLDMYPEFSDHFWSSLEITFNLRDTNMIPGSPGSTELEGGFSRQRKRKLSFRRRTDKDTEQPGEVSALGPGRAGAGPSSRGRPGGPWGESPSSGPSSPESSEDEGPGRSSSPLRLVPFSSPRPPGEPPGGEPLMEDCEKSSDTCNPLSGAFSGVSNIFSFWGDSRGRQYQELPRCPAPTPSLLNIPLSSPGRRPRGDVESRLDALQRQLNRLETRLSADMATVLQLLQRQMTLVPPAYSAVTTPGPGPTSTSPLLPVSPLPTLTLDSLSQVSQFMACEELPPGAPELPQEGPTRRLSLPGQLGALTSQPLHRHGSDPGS
row,SMILES,"hERG current change (%, negative = inhibition) at 1uM [%]"
1,COc1ccc(C(=O)NCC2COc3ccccc3O2)cc1S(=O)(=O)N1CCOCC1 (stereo not drawn),-3.4
2,C/C(=N\NC(=O)c1ccncc1)c1ccc(NC(=O)c2ccc(Cl)cc2)cc1,11.5
3,Cc1ccc(N(CC(=O)NCC2CCCO2)C(=O)CCC(=O)Nc2nccs2)cc1 (stereo not drawn),6.44
4,Cc1ccccc1C(=O)N1CCC(C(=O)NC2CCCCC2)CC1,13.5
5,COc1cccc(Nc2nc(-c3sc(N)nc3C)cs2)c1,0.629
6,COc1ccccc1C(=O)NC(CCSC)C(=O)NCC(c1cccs1)N(C)C (stereo not drawn),19
7,CCOC(=O)c1c(C)oc2c1c1c(c3ccccc32)OCN(Cc2ccccn2)C1,0.17
8,CN(Cc1nccs1)C(=O)c1ccc2nc(Cc3ccccc3F)oc2c1,8.66
9,CCN(CC)CCC(c1ccc2c(c1)OCO2)c1c(OC)cc(OC)c2c(-c3ccccc3)cc(=O)oc12 (stereo not drawn),-2.04
10,N/C(=N\OC(=O)CCC1CCCC1)c1ccc([N+](=O)[O-])cc1,10.1
11,O=C1NC(C(F)(F)F)(C(F)(F)F)N=C2SC=CN12,1.69
12,CNc1cnn(-c2ccccc2)c(=O)c1Cl,11.9
13,CCOC(=O)c1c(C)[nH]c(C(=O)OCC(=O)Nc2ccccc2)c1C,20
14,CC(C)OC(=O)c1cc(C(=O)c2cc(F)ccc2O)coc1=N,-1.8
15,Cc1nc(N/N=C/c2ccccc2)nc(N(C)c2ccccc2)c1[N+](=O)[O-],11.3
16,COC(=O)c1c(NC(=O)CCCC(=O)O)sc2c1CCCCC2,8.9
17,O=C(Nc1ccc(F)cc1)N1CCN(c2ccc(F)cc2)CC1,-22
18,Cc1ccc(CNC(=O)CCNS(=O)(=O)c2ccc3c(c2)c(=O)n(C)c(=O)n3C)cc1,17.1
19,COc1cc([N+](=O)[O-])cc(/C=N/NC(=O)c2cncc(Br)c2)c1O,5.85
20,O=C(CN(c1cc(C(F)(F)F)ccc1Cl)S(=O)(=O)c1ccccc1)NCc1cccnc1,14.3
21,Cc1cc(NC(=O)CSc2n[nH]c(N)n2)no1,5.17
22,Cc1ccc(C(=O)c2cc(C)sc2N)cc1,9.34

row,SMILES,"hERG current change (%, negative = inhibition) at 1uM [%]"
1,CCOc1ccccc1CNC(=O)c1ccc(NC(=O)C2=CSCCO2)cc1,12.5
2,CCc1cccc(C)c1NC(=S)N(CCN(C)C)C(C)c1cccnc1 (stereo not drawn),10.3
3,O=C(NCC1CCCO1)C1c2ccccc2C(=O)N1Cc1ccc2c(c1)OCO2 (stereo not drawn),-8.67
4,Cc1csc(=NC(=O)c2ccccc2)n1C,5.86
5,Cc1ccc(S(=O)(=O)N2CCN(C(=O)N3CCOCC3)C2C(C)C)cc1 (stereo not drawn),0.261
6,COc1ccc(C[C@H]2c3cc(O)c(OC)cc3CC[N+]2(C)[O-])cc1O (stereo partly drawn),16.9
7,CC1=CC(C)(C)N(C(=O)CSc2nnc(N)s2)c2cc(C)c(C)cc21,2.05
8,Cc1cccc(NC(=O)CCc2ccccc2)c1C,18.1
9,O=c1c2c(-c3cccc([N+](=O)[O-])c3)ccnc2[nH]n1-c1ccccc1,10.9
10,Cc1ccc(NC(=O)CC2SCCNC2=O)cc1[N+](=O)[O-] (stereo not drawn),14.5
11,Cc1cccc(NC(=O)CCSc2nc(C)cc(C)n2)c1,6.86
12,Nc1ccc(N=Nc2ccccc2O)c(N)c1,9.44
13,Cc1cccc(CNC(=O)C2CCC(=O)N(C3CCCCCC3)C2)c1 (stereo not drawn),8.01
14,CCC(=O)Nc1cccc(-c2nc3ccc(C)cc3o2)c1,11.4
15,Cc1ccc(C)c(NC(=O)C(c2ccccc2)N2CCOCC2)c1 (stereo not drawn),9.07
16,N#CCOC(=O)[C@H](Cc1c[nH]c2ccccc12)NS(=O)(=O)c1ccc(Cl)cc1,12.2
17,Cc1cc(C)cc(C(=O)NC(CC(N)=O)c2ccc(N3CCC(Br)CC3)c([N+](=O)[O-])c2)c1 (stereo not drawn),10.6
18,Cc1nc2c(ncn2-c2ccccc2)c(=O)n1NC(=O)CN1CCCC1,9.44
19,CSc1cccc(NC(=S)N(Cc2ccccc2)Cc2cccnc2)c1,15.5
20,COCCNC(=O)c1ccc(CN2CCOCC2)cc1,10.7
21,Fc1ccc(C2=CC(c3ccco3)n3nnnc3N2)cc1 (stereo not drawn),2.25
22,Cc1ccc(-c2cnn(-c3cccc([N+](=O)[O-])c3)c2N)cc1,-12.9

row,SMILES,"hERG current change (%, negative = inhibition) at 1uM [%]"
1,COc1ccc(CN2C(=O)NC(C)(c3ccc(C)cc3)C2=O)cc1F (stereo not drawn),7.12
2,CC(=O)Nc1c(C)cc(OCC(=O)O)cc1C,1.1
3,CCc1ccc(-n2c(CSc3nnnn3-c3ccccc3)nc3ccccc3c2=O)cc1,1.25
4,CC(=O)NC1(C(F)(F)F)NC(=O)N(c2ccc(F)cc2)C1=O (stereo not drawn),10.6
5,O=[N+]([O-])c1ccc(CN2CCN(c3ccc(Cl)cc3)CC2)o1,4.89
6,COc1cccc(NC(=O)CSc2nncn2-c2ccccn2)c1,-3.76
7,Cc1ccc(-c2nc3ccccc3c(=O)n2-c2cc(C)ccn2)cc1,-1.72
8,COc1ccccc1CCNC(=O)CSc1ccc(-c2cccs2)nn1,8.97
9,Cc1ccc2c(c1)N(C(=O)CCC(=O)NCc1cccc(Br)c1)CC(C)O2 (stereo not drawn),-2.96
10,C=CCn1c(=S)[nH]c2scc(-c3ccc(C)o3)c2c1=O,13.7
11,COc1ccccc1CNC(=O)C1CCCN(S(=O)(=O)c2ccc3c(c2)C(C)(C)C(=O)N3C)C1 (stereo not drawn),3.3
12,O=C(Nc1cccnc1)c1ccc(Oc2ccccc2)cc1,9.53
13,CC(=O)Nc1ccc(NC(=O)CCn2c(=O)oc3ccccc32)cc1,2.55
14,Cc1ccc(NCCC(=O)c2ccc(Cl)cc2)cc1,-0.203
15,O=C(C1CC(=O)N(C2CCCCC2)C1)N1CCN(c2cccc(C(F)(F)F)c2)CC1 (stereo not drawn),10.1
16,Cc1cc(C(=O)OCC(=O)N2CCN(C(=O)c3ccco3)CC2)c(C)n1-c1ccc(F)cc1,-19.8
17,CC1(C)Cc2ccccc2C(/C(=N\Nc2cccc(Cl)c2)C(N)=O)=N1,4.61
18,CN(C)CCn1c(N)nc2ccccc21,5.99
19,COc1ccc2nc(/C=N/NC(=O)CCCCCNC(=O)OC(C)(C)C)ccc2c1,11.7
20,O=C(C1CCN(S(=O)(=O)c2ccc(Cl)c(C(F)(F)F)c2)CC1)N1CCC1,-0.875
21,CCN(CC(=O)Nc1ccc(Cl)c(C(F)(F)F)c1)CC(=O)NC1CCS(=O)(=O)C1 (stereo not drawn),6.9
22,CCOC(=O)C1CCCN(C(=O)CCC(=O)Nc2ccc3nc(N4CCOCC4)cc(C)c3c2)C1 (stereo not drawn),-13

row,SMILES,"hERG current change (%, negative = inhibition) at 1uM [%]"
1,O=C(NNS(=O)(=O)c1ccc(Cl)cc1)c1cnn(-c2ccccc2)c1-n1cccc1,7.78
2,Cc1nn(CC#N)c(=O)n1-c1ccccc1,10.4
3,COc1cc(C(=O)NNC(=O)CN2C(=O)NC(C)(c3ccc(C)cc3)C2=O)cc(OC)c1OC (stereo not drawn),3.96
4,Cc1cc(NS(=O)(=O)c2ccc(NC(=O)CSc3nnc(-c4ccco4)n3N)cc2)nc(C)n1,6.47
5,CCCCCCn1c(O)c(C=Nc2c(C)n(C)n(-c3ccccc3)c2=O)c(=O)[nH]c1=O,1.24
6,COc1ccc(-c2csc(/C(C#N)=C/Nc3ccc4c(c3)OCCO4)n2)cc1,9.07
7,CCOC(=O)COc1ccc(S(=O)(=O)N2CCN(C(=O)OCC)CC2)cc1,6.68
8,CCN(CC(=O)Nc1c(F)cccc1F)C(=O)/C=C/c1cn(Cc2ccccc2)nc1-c1cccnc1,1.08
9,COc1ccc(C(=O)Oc2cc(C)[nH]c(=O)c2[N+](=O)[O-])cc1,6.67
10,Cc1cccc(NC(=O)C2CCN(S(=O)(=O)c3ccc(Cl)cc3)CC2)n1,4.14
11,O=C1Nc2ccccc2N(O)N1c1cc(-c2ccc(Cl)cc2)[nH]n1,7.2
12,O=C(CNc1ccc2ccccc2c1)N/N=C/c1ccncc1,7.41
13,CC12CCC(=O)N1C(C(=O)Nc1ccc(F)c(Cl)c1)CS2 (stereo not drawn),3.3
14,CCOC(=O)c1cnc2c(cnn2C)c1NCCCn1ccnc1,-10.1
15,CCN(CC)S(=O)(=O)c1ccc(N2CCCCC2)c(NC(=O)/C=C/c2ccc(OC)c(OC)c2)c1,4.81
16,CCn1c(SCC(=O)NCCc2ccc(OC)c(OC)c2)nc2c1c(=O)n(C)c(=O)n2C,-1.45
17,O=c1c2[nH]c3ccccc3c2nc2n1CCS2,12.8
18,Cc1cccc(OCC(=O)NNC(=O)c2ccc3nc[nH]c3c2)c1,12.2
19,Cc1cc(C)nc(NC(=O)c2ccc(C)c([N+](=O)[O-])c2)n1,5.73
20,O=C(Nc1nccs1)c1ccc2ccccc2n1,13.6
21,O=C(CCN1C(=O)/C(=C\c2ccccc2)SC1=S)N1CCCCC1,14.1
